Article PMC10009787 (ACS Medicinal Chemistry Letters, 2023)
Where two headings read alike, the source gives them in different places.

Target: SRC (Homo sapiens, UniProt P12931)
Test: SelectScreen kinase profiling / Z′-Lyte kinase assay

Chain of UniProt P12931 (P12931 whole entry): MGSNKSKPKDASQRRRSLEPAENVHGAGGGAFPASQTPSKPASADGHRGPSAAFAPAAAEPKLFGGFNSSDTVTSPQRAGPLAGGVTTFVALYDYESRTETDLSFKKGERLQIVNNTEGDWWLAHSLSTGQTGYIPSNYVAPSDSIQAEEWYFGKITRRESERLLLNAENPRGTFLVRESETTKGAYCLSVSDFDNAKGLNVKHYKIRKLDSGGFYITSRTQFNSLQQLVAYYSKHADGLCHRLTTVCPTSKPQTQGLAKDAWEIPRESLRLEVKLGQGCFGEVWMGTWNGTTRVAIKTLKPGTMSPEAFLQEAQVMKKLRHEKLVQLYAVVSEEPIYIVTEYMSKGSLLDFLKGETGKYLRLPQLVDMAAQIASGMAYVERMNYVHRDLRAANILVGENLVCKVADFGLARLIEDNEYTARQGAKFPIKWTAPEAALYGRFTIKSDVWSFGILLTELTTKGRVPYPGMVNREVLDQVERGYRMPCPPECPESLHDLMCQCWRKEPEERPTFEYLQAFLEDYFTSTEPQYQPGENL

Question: Which results are given for C=CC(=O)N1CCC[C@@H](n2nc(-c3ccc(Oc4ccccc4)cc3C)c3c(N)ncnc32)C1 [Compound 2, (R)-1-(3-(4-amino-3-(2-methyl-4-phenoxyphenyl)-1H-pyrazolo[3,4-d]pyrimidin-1-yl)piperidin-1-yl)prop-2-en-1-one]?
Answer: IC50: 33.5 nM; inhibition at 0.00457 µM (read-out: % Inhibition Point 1): 22%; inhibition at 0.0137 µM (read-out: % Inhibition Point 1): 41%; inhibition at 0.0412 µM (read-out: % Inhibition Point 1): 62%; inhibition at 0.123 µM (read-out: % Inhibition Point 1): 82%; inhibition at 0.37 µM (read-out: % Inhibition Point 1): 93%; inhibition at 1.11 µM (read-out: % Inhibition Point 1): 100%; inhibition at 0.0137 µM (read-out: % Inhibition Point 2): 35%; inhibition at 0.0412 µM (read-out: % Inhibition Point 2): 58%; inhibition at 0.123 µM (read-out: % Inhibition Point 2): 82%; inhibition at 0.37 µM (read-out: % Inhibition Point 2): 92%; inhibition at 1.11 µM (read-out: % Inhibition Point 2): 101%
